Drawing on PubChem BioAssay AID1963849 (Molecular Pharmacology Branch, DTP, NCI, 2024), this text covers viability, T/C for two compounds.

Some entries of the source have several records that differ or are many. This list holds those alone. The source may hold further records. Values given together are repeated measurements (runs, samples, wells, individuals or studies). Additions like (4×) give the number of equal values in this list. A date in brackets names the month of the test.

The assay relates to 299254-011-R-J1-PDC complex spheroid viability. The experiment in a line: Anticancer human tumor 299254-011-R-J1-PDC patient-derived melanoma cell line growth inhibition [POLQ]. As to conditions: stronger effect = lower value. How it is done: Multicellular complex tumor spheroid response to Polymerase (POL) inhibitors (novobiocin, ART-558, RP6685) in combination with a variety of drugs and investigational agents in selected tumor cell lines
The POL inhibitors (novobiocin, ART-558, and RP6685) were evaluated both individually and in combination with standard of care and investigational anticancer small molecules within a complex spheroid model of solid tumors. . Complex spheroids include a stromal component modeled by human endothelial cells (HUVEC) and fibroblasts modeled by human mesenchymal stem cells (MSCs). The concentration ranges selected for each drug and investigational agent were based upon clinically achievable concentrations if the clinical Cmax of the agent was known.
Compounds. The drugs and investigational agents: novobiocin (NSC847541), ART-558 (NSC835418), RP-6685 (NSC848927), peposertib (NSC802822), ceralasertib (NSC780249), elimusertib (NSC800525), camonsertib (NSC841442), AZD-1390 (NSC803789), olaparib (NSC753686), talazoparib (NSC767125), rucaparib (NSC756644), sotorasib (NSC818433), MRTX-1133 (NSC836407), SN-38 (NSC673596), topotecan (NSC609699), epotoside (NSC141540), doxorubicin (NSC123127), gemcitabine (NSC613327), 5-fluorouracil (NSC19893), paclitaxel (NSC125973), vemurafenib (NSC761431), MSA-2 (NSC828583), SN-011 (NSC837082), adavosertib (NSC754352), prexasertib (NSC758257), carboplatin (NSC241240) and oxaliplatin (NSC266046), were obtained from the National Cancer Institute (NCI) Developmental Therapeutics Program Chemical Repository (21). The FDA-approved anticancer drug set is available from the Developmental Therapeutics Program at https://dtp.cancer.gov/organization/dscb/obtaining/. […] The stock solutions were prepared in dimethyl sulfoxide (DMSO, Sigma-Aldrich, St. Louis, MO, cat. D2650), except for the platinum compounds which were prepared in saline (Quality Biological, Gaithersburg, MD, cat. 114-055-101), at 800-fold the tested concentration and stored at -70 degrees C prior to their use. All drugs and investigational agents were tested over a range starting from a high concentration at or near the clinical Cmax and decreasing in half-log increments. If the clinical Cmax for an agent had not been determined, the highest concentration tested was 10 microM, except for SN-38, which was tested at a high concentration of 1 microM.
Cell Culture. All cells were maintained in an incubator at 37 degrees C and 5% CO2 with 95% humidity. The PDC lines were cultured according to standard operating procedures established by the NCI PDMR (https://pdmr.cancer.gov). Table 3 of the manuscript, lists the cell lines along with the number of the three cell types plated to form the mct-spheroids and media for tumor cell growth. After thawing, all PDC lines, except 997537-175-T-J1-PDC and 415267-285-R-J2-PDC, were cultured in Matrigel-coated flasks prepared with a working solution of 1X Ham's F-12 nutrient mix, without supplementation (Thermo Fisher Scientific, cat. 11765054), 100 U/mL penicillin-streptomycin (Thermo Fisher Scientific, cat. 15140122), and 2.5% Matrigel (Corning Inc., Corning, NY, cat. 354248) for the first three passages. The two PDC lines 997537-175-T-J1-PDC and 415267-285-R-J2-PDC were cultured on uncoated flasks. The 857933-349-R-J2-PDC line was cultured in 6C/Colon 1B media containing advanced DMEM/F-12 (Thermo Fisher Scientific, cat. 12634028), 10 mM HEPES (Thermo Fisher Scientific, cat. 15630080), 1X GlutaMAX supplement (Thermo Fisher Scientific, cat. 35050061), 0.1 mg/mL primocin (InvivoGen, San Diego, CA, cat. ant-pm-2), 10% defined fetal bovine serum, heat inactivated (HyClone Laboratories Inc., Logan, UT, cat. SH30070.03HI), 50% L-WRN conditioned media (ATCC, cat. CRL-3276), 1.25 mM N-Acetyl-L-cysteine (Sigma-Aldrich, cat. A9165), 10 mM nicotinamide (Sigma-Aldrich, cat. N0636), 1X B-27 supplement (Thermo Fisher Scientific, cat. 17504044), 1X N-2 supplement (Thermo Fisher Scientific, cat. […]
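Further: spheroids exposed to drugs for one week before measurement; percent viability relative to DMSO vehicle control taken as 100%.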

As to `COC1C(OC(N)=O)C(O)C(Oc2ccc3c(O)c(NC(=O)c4ccc(O)c(CC=C(C)C)c4)c(=O)oc3c2C)OC1(C)C` (stereo unspecified), the viability, T/C (compound alone 0.0316 µM) is 107 (3×), 99.5, 120, 90.8, 104 (2×), 96.4, 113, 100, 102, 111%; the viability, T/C (compound alone 0.1 µM) is 92.4, 100 (2×), 119, 99.9, 106, 103 (2×), 105, 102 (2×), 111, 117%; the viability, T/C (compound alone 0.316 µM) was 104 (2×), 100 (2×), 135, 101, 107, 116, 105, 95.7, 109, 97, 96.7%; the viability, T/C (compound alone 1 µM) was 97.4, 104, 126, 93.7, 122, 106, 87.5, 98.5, 97.2, 97, 111, 105%; the viability, T/C (compound alone 10 µM) is 109, 91.4, 135, 100, 99.9, 108, 103, 111, 97.1, 105 (3×), 96.6%.
Take `Cc1cccc(N(C)C(=O)C2C(O)CCN2c2nc(C)cc(C(F)(F)F)c2C#N)c1` (stereo unspecified): the viability, T/C (compound alone 10 µM) is 87.2, 99.9, 92.1, 100, 98.7, 94.1, 95.3, 97% [2023-11] and 96.1, 98.8, 99.8, 99.3, 113% [2023-12].
